According to the supplement of paper PMC10369915:
This is one part of the list. Cut-off read from the data, not from the text of the source: active = 3.2 or more and inactive = the rest. Only a few entries rise above the background.

B1: VDAC1_HUMAN_67_YA (peptide)
chain: TKARWTEYGLTFTEK
B2: VINC_HUMAN_1133 (peptide)
chain: WVRKTPWYQGGGGGG
B3: VDAC3_HUMAN_67_YA (peptide)
chain: TKAKVCNYGLTFTQK
B4: ZMYM2_HUMAN_683 (peptide)
chain: CIVTYCEYCQEEKTL
B5: UBR5_HUMAN_1746 (peptide)
chain: ASSAGLIYIDPSNLR
B6: VGFR3_HUMAN_1363 (peptide)
chain: TFFTDNSYGGGGGGG
B7: VGFR1_HUMAN_1333_YA (peptide)
chain: DANSVVLYSTPPIGG
B8: VGFR2_HUMAN_1309_YA (peptide)
chain: TSGAQSGYHSDDTDT
B9: YPEL4_HUMAN_98 (peptide)
chain: KTTLGWKYEQAFETS
B10: WDR48_HUMAN_28 (peptide)
chain: IRDEVEKYNRNGVNA
B11: VGFR2_HUMAN_1309 (peptide)
chain: TSGYQSGYHSDDTDT
B12: UBE3A_HUMAN_659 (peptide)
chain: GDSHPVLYQSLKDLL
B13: URP2_HUMAN_11 (peptide)
chain: MKTASGDYIDSSWEL
B14: VGFR2_HUMAN_801 (peptide)
chain: GGELKTGYLSIVMDP
B15: ZMYM2_HUMAN_683_YA (peptide)
chain: CIVTACEYCQEEKTL
B16: TRPV4_HUMAN_805_YA (peptide)
chain: DPGKNETYQAAGFSH
B17: ZC3H4_HUMAN_158 (peptide)
chain: GHRKYREYSPPYAPS
B18: VAV2_HUMAN_172 (peptide)
chain: EDGGDDIYEDIIKVE

molecular target: SHP2 C-SH2 domain E139D; test: enrichment score (SH2-bound / input frequency) (ratio); bacterial display of known human phosphotyrosine sites (pTyr-Var adds point mutants) read by sequencing; higher = stronger binding; tyrosines were phosphorylated by kinases first; conditions: peptide library: Human pTyr
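Note: displayed peptides selected on beads carrying the immobilized SH2 domain, with library peptides lacking any tyrosine serving as negative controls.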

Enrichment score, inactive:
B1 0.937
B2 2.87
B3 1.27
B4 1.79
B5 0.676
B6 0.707
B7 0.505
B8 0.739
B9 0.811
B10 0.772
B11 0.816
B12 1.2
B13 0.622
B14 0.901
B15 1.48
B16 0.615
B17 0.945
B18 1.76

molecular target: SHP2 C-SH2 domain wild-type; test: as above; conditions: peptide library: Human pTyr

Enrichment score, inactive:
B1 1.15
B2 2.66
B3 0.875
B4 2.59
B5 0.519
B6 0.644
B7 0.417
B8 0.548
B9 0.807
B10 0.639
B11 0.582
B12 1.04
B13 0.604
B14 1.06
B15 1.43
B16 0.781
B17 0.762
B18 1.3

molecular target: SHP2 N-SH2 domain L43F; test: as above; conditions: peptide library: Human pTyr

Enrichment score, inactive:
B1 0.843
B2 2.5
B3 1.22
B4 1.68
B5 0.971
B6 0.683
B7 0.479
B8 0.66
B9 0.856
B10 0.677
B11 0.693
B12 1.06
B13 0.693
B14 1.04
B15 1.1
B16 0.511
B17 0.769
B18 2.01

molecular target: SHP2 N-SH2 domain T42A; test: as above; conditions: peptide library: Human pTyr

Enrichment score, inactive:
B1 0.997
B2 2.89
B3 1.04
B4 1.99
B5 1.03
B6 0.542
B7 0.406
B8 0.599
B9 0.646
B10 0.65
B11 0.826
B12 1.24
B13 0.576
B14 1.43
B15 1.46
B16 0.596
B17 0.907
B18 1.48

molecular target: SHP2 N-SH2 domain T52S; test: as above; conditions: peptide library: Human pTyr

Enrichment score, inactive:
B1 1.27
B2 2.69
B3 1.27
B4 1.82
B5 0.884
B6 0.605
B7 0.559
B8 0.669
B9 0.936
B10 0.771
B11 0.815
B12 1.06
B13 0.631
B14 0.991
B15 1.24
B16 0.562
B17 1.06
B18 1.65

molecular target: SHP2 N-SH2 domain wild-type; test: as above; conditions: peptide library: Human pTyr

Enrichment score, inactive:
B1 1.23
B3 1.31
B4 2.71
B5 0.551
B6 0.628
B7 0.563
B8 0.809
B9 0.755
B10 0.714
B11 0.644
B12 1.29
B13 0.622
B14 1.03
B15 1.44
B16 0.747
B17 1.2
B18 1.45

Enrichment score, active:
B2 3.56
